Read counts are not given, so values of variants with three or more changes are uncertain.
B1: CPEB3 Ribozyme (parent)
chain: UAACAGGGGGCCACAGCAGAAGCGUUCACGUCGCAGCCCCUGUCAGAUUCUGGUGAAUCUGCGAAUUCUGCUGUAUAUCUC

Variants of: B1
Test: self-cleavage, relative activity (ratio to wild type); higher = more cleavage; in vitro, sequencing
Method in brief: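 Libraries of CPEB3 self-cleaving ribozyme mutants came from rounds of error-prone PCR and carried barcodes, which DNA sequencing matched to variants. In vitro transcription used T7 RNA polymerase at 37°C for 5 hours, with a further 15 min in DNase I before EDTA stopped the reaction; the ribozymes cleaved during both steps. The RNA was reverse transcribed with template switching and sequenced on Illumina. Relative activity is the cleaved/total read fraction of a variant divided by that of the unmutated ribozyme, averaged over three batches with at least 5 reads.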

Variant | self-cleavage
A18G A21G C27A U43A U69A | 0.05
A18G A21G C27G C44U A47U | 0.02
A18G A21G C37A U69A | 0.26
A18G A21G C44U A45G G52A | 0.12
A18G A21G G30A A45G U58C | 0.08
A18G A21G G33U U72G U80A | 0.08
A18G A21G G55A U60A | 0.07
A18G A21G U25C U43C | 0.39
A18G A21G U25C U67C | 0.18
A18G A21G U26A U43A A45U A56G U60C | 0.03
A18G A21G U26C | 0.11
A18G A21G U26C U31A A64G | 0.05
A18G A21G U26C U67A | 0.32
A18G A21G U31A U41C A56U A57G | 0.21
A18G A21G U31G A47G U48A | 0.09
A18G A21G U41A A64G U72A | 0.04
A18G A21G U43C U49A | 0.06
A18G A21G U43C U51A | 0.25
A18G A21U A35C G36U C71G U78G | 0.05
A18G A21U A56U U69C U76C | 0.08
A18G A21U C29U C50U | 0.04

Variant | self-cleavage
A18G A21U C34U A35G U49C U51A U67G | 0.05
A18G A21U C40U U48A U69C U78C | 0.07
A18G A21U G30A G73A | 0.09
A18G A21U G63A | 0.33
A18G A21U U26A U41C U69C | 0.13
A18G A28C C44G A57G | 0.19
A18G A28C U31G U48A U67C | 0.17
A18G A28C U48A C68A | 0.13
A18G A28C U49C | 0.14
A18G A28G A35G C40A | 0.07
A18G A28G A45G U80G | 0.37
A18G A28G A45U C62U | 0.18
A18G A28G A45U U72C | 0.16
A18G A28G A56C A64G | 0.24
A18G A28G C29U A45C | 0.31
A18G A28G G30A G63C | 0.21
A18G A28G G30C U49C | 0.15
A18G A28G U31C | 0.3
A18G A28G U31C C62U | 0.28
A18G A28G U41A A45G | 0.29
A18G A28G U41C U43C U66C | 0.17

Variant | self-cleavage
A18G A28G U41C U66C U67C | 0.2
A18G A28G U49A U69C | 0.54
A18G A28G U49C | 0.26
A18G A28G U49C C50A | 0.32
A18G A28G U49C U80C | 0.1
A18G A28G U69C | 0.93
A18G A28G U76C | 0.16
A18G A28G U78C | 0.25
A18G A28G U80C C81U | 0.42
A18G A28U A35G U74A | 1.1
A18G A28U A45G U49C | 0.4
A18G A28U A47G U54C | 0.25
A18G A28U C32A U74A | 0.19
A18G A28U C62A | 0.19
A18G A28U C62U | 0.12
A18G A28U G52C G63U | 0.37
A18G A28U U58A A64U U67C | 0.13
A18G A28U U72C | 0.55
A18G A35C U48C | 0.31
A18G A35C U48C U60C A65G U72A | 0.15
A18G A35C U48C U72A A75U | 0.13

Variant | self-cleavage
A18G A35G A45G U49C U76C A77U | 0.11
A18G A35G A45U C68U U78C C81U | 0.3
A18G A35G A45U U78C U80A | 0.66
A18G A35G A47G | 0.77
A18G A35G A56U U60C | 0.39
A18G A35G A64G U78C | 1.12
A18G A35G A65G | 0.78
A18G A35G C37U U69C | 1.31
A18G A35G C44U | 0.24
A18G A35G C68U | 0.23
A18G A35G C81U | 1.37
A18G A35G U41C | 0.48
A18G A35G U41C A64G | 0.88
A18G A35G U41C U54C A56U | 0.35
A18G A35G U49A | 0.98
A18G A35G U49C A56G | 1.07
A18G A35G U51A U72C | 1.01
A18G A35G U51C | 1.13
A18G A35G U54C A75G C79A | 1.22
A18G A35G U58A | 0.29
A18G A35G U58C | 0.71

Reference: the RNAGym collection of RNA variant scans (doi:10.1093/nar/gkz1192)
